Data on 95 molecules can be found in PubChem BioAssay AID485344 (National Center for Advancing Translational Sciences (NCATS), 2010).

SMILES strings stand for the structures. Hit rate of the full screen: of about 340,000 compounds, about 6,900 (2%) were called active. Rule as the data show it: active = inhibition above about 30%; inactive = below that, where a call was filed. The entries are a selection whose mix differs from that of the whole data set. Entries without a call were filed so in the source.

This assay addresses D(2) dopamine receptor (Homo sapiens) (UniProt P14416). The assay is described as follows: HTS Assay for Allosteric Antagonists of the Human D2 Dopamine Receptor: Primary Screen for Antagonists. Also: 0% is about no effect. The following applies: HEK293 TREx D2 cells, calcium flux, dopamine EC80; at 10 µM; stronger effect = higher value. The gist of the method: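 Tetracycline-induced HEK293 T-REx cells expressing D2 force-coupled to calcium signalling were dye-loaded, exposed to compound for 180 s, then challenged with an EC80 of dopamine; calcium flux was followed kinetically for a further 180 s.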
Sequence of UniProt P14416 (P14416 whole entry, looked up): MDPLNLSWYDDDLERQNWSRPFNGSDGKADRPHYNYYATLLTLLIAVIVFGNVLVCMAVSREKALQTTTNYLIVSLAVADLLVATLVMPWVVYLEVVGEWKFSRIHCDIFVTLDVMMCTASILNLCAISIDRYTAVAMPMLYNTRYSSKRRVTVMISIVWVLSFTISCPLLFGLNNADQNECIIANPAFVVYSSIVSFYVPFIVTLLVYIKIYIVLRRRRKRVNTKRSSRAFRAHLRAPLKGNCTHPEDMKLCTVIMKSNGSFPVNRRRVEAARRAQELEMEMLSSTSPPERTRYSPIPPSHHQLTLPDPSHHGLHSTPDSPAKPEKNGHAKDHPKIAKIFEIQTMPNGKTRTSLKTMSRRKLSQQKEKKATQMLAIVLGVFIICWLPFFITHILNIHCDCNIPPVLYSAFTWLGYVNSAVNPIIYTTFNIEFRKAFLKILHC
(In general: Calcium flux is commonly read through the fluorescence of an indicator in the cells.)
Broadly, the inhibition is the relative decrease from the control value, in per cent. `Cc1ccc(N2CCN(Cc3nnc(-c4ccc5c(c4)OCO5)o3)CC2)c(C)c1`: the inhibition came out at 6.8%.

`COc1ccccc1N1CCN(C(=O)c2ccc3c(c2)N(Cc2ccccc2)C(=O)c2ccccc2S3(=O)=O)CC1`: the inhibition is -11.9%.

Regarding `Cc1cc(C)cc(NC(=O)CSCc2cc(=O)c3cc(Cl)ccc3[nH]2)c1`, the inhibition is -19.3%.

In the case of `Cc1c(-c2nc(-c3ccc4c(c3)[nH]c(=O)n4C)no2)cccc1[N+](=O)[O-]`, the inhibition was 13.8%.

Consider `Cc1ccc(-c2c[n+](Cc3ccc(Cl)c(Cl)c3)c3n2CCC3)cc1`, for which the inhibition is active: 30.4%.

In the case of `O=C(c1cnc(N2CCOCC2)c2ccccc12)N1CCN(c2ccc(F)cc2)CC1`, the inhibition is -3.91%.

Take `CC1(C)CC(=O)c2cc(-c3nc(-c4ccc(Br)cc4)cs3)c(=O)n(-c3ccccc3)c2C1`: the inhibition was 7.58%.

As for `Cc1cccc(-c2noc(CN(C(C)C)S(=O)(=O)c3ccc(Br)cc3)n2)c1`, the inhibition came out at 5.46%.

Consider `Cc1ccc2nc(CSc3nnc(NC(=O)COc4ccccc4F)s3)cc(=O)n2c1`, for which the inhibition is -7.25%.

Consider `Nc1c(C(=O)c2ccc3c(c2)OCO3)sc(Nc2ccccc2F)c1S(=O)(=O)c1ccccc1`, for which the inhibition is -13.1%.

With `COc1ccc(C2CC(=O)c3cc(-c4nc(-c5cccc([N+](=O)[O-])c5)cs4)c(=O)n(-c4cc(C)cc(C)c4)c3C2)cc1` (stereo not given), the inhibition was found to be 10.5%.

Consider `CCOC(=O)CSc1nc2sc3c(c2c(=O)n1CC)CCCC3`, for which the inhibition was -6.82%.

For the molecule `CCCC(=O)Nc1ccc2nn(-c3ccc(CC)cc3)nc2c1`, the inhibition is -15.8%.

Regarding `O=C(CCCn1c(=O)c2sccc2n(Cc2c(F)cccc2Cl)c1=O)NCc1ccccc1`, the inhibition is 6.73%.

As for `Cn1c(=O)c2c(-c3ccccc3Br)n(C(C)(C)C)cc2n(C)c1=O`, the inhibition is 6.96%.

In the case of `CCCCOC(=O)c1ccc(NC(=O)c2ccc3c(c2)CCN3S(=O)(=O)c2ccccc2)cc1`, the inhibition was -1.06%.

Take `O=C(Nc1ccc(F)cc1F)c1ccc(-c2ccccc2)s1`: the inhibition came out at 2.45%.

Turning to `CCOC(=O)c1c(C)[nH]c(C)c1S(=O)(=O)N1CCCC(C(=O)N2CCN(c3ccc(Cl)cc3)CC2)C1` (stereo not given), the inhibition stood at 14.6%.

As for `O=C(Nc1ccccc1C(=O)OCc1cc(=O)n2c3c(sc2n1)CCCC3)c1ccc(Cl)cc1`, the inhibition amounted to 9.48%.

For `Cc1nnc(N2CCN(c3ccccc3)CC2)c2c1nnn2Cc1ccc(F)cc1`, the inhibition was 17.5%.

As to `CCOC(=O)c1ccc(N2CCN(c3cccc(Cl)c3)CC2)c(NC(=O)Nc2ccc(Cl)cc2)c1`, the inhibition came to 8.09%.

With `O=C1Nc2c(c(=O)[nH]c(=O)n2-c2ccc(Cl)cc2)C1(NS(=O)(=O)c1ccccc1)C(F)(F)F` (stereo not given), the inhibition is 0.756%.

Consider `Cc1ccc(C)c(NC(=O)CCn2cnnn2)c1`, for which the inhibition came out at 1.41%.

In the case of `CCOc1ccccc1CNS(=O)(=O)c1cnc(N)nc1`, the inhibition turned out to be 5.22%.

As to `COc1ccccc1Cn1c(CNS(=O)(=O)c2ccc(Cl)s2)nc2cccnc21`, the inhibition is -11.9%.

In the case of `COCCCNC(=O)c1cc2c(=O)n3cccc(C)c3nc2n(C(C)C)c1=N`, the inhibition was active: 34.5%.

For the molecule `CC(=O)c1cccc(NC(=O)Cn2cnc3c2c(=O)n(C)c(=O)n3C)c1`, the inhibition was 18%.

On to `COc1ccc(-n2c(CCC(=O)O)ccc2-c2ccccc2)cc1`, for which the inhibition was -11.8%.

With `CCOC(=O)c1cccc(NC(=O)Cc2ccc(NC(=O)N3CCCCc4ccccc43)cc2)c1`, the inhibition was -3.54%.

Take `CCC(=O)N1CCc2cc(Br)cc(S(=O)(=O)N3CCCC(C(=O)Nc4ccc(CC)cc4)C3)c21` (stereo not given): the inhibition is -0.124%.

As to `COc1ccc(/C=C(\C#N)c2nc(-c3ccc(Cl)c(Cl)c3)cs2)cc1OC`, the inhibition amounted to 5.68%.

As for `COc1cc(C(=O)NCC(c2ccc(N(C)C)cc2)N2CCCC2)cc(OC)c1OC` (stereo not given), the inhibition was -20.8%.

Turning to `CCOc1ccc(NC(=O)CSc2nc3nc(C)c(Cc4ccccc4)c(C)n3n2)cc1`, the inhibition is -9.6%.

Regarding `CCc1ccc(NC(=O)CSc2nc(=O)n(Cc3cccnc3)c3c2CCC3)cc1`, the inhibition is 11.7%.

As for `Cc1ccc(-c2nc3ccc(Br)cn3c2Nc2ccc3c(c2)OCO3)o1`, the inhibition is -2.29%.

For the molecule `O=C(COc1ccccc1F)NC1CC(=O)N(c2ccc3c(c2)OCCO3)C1` (stereo not given), the inhibition is -7.69%.

In the case of `CCc1ccccc1NC(=O)CSc1nc2c(oc3ccccc32)c(=O)n1-c1ccccc1`, the inhibition amounted to 4.01%.

Consider `O=C(NCc1ccccc1Cl)C(=O)NCC(c1ccco1)S(=O)(=O)c1cccs1` (stereo not given), for which the inhibition is -10.9%.

Turning to `COc1ccccc1CNC(=O)C1CCN(c2nn3c(=O)cc(C)nc3s2)CC1`, the inhibition is -6.53%.

As for `CCC1CCCCN1CCCNC(=O)c1cc2c(Cl)nc3ccc(C)cc3c2s1` (stereo not given), the inhibition is -1.08%.

In the case of `COc1ccc(Cn2c(=O)c3oc4ccccc4c3n(CC(=O)Nc3cc(C)cc(C)c3)c2=O)cc1`, the inhibition was -8.88%.

Take `Cc1c2cnn(CC(=O)NCCc3ccccc3)c(=O)c2c(C)n1Cc1ccccc1Cl`: the inhibition was determined as 7.14%.

For `CCC1CCCCN1CCCNC(=O)c1ccc2c(c1)N(Cc1cccc(C)c1)C(=O)c1ccccc1S2(=O)=O` (stereo not given), the inhibition was -10.1%.

Take `COc1cccc(-n2cc(C(=O)NCCc3cccc(C)c3)c3ccccc3c2=O)c1`: the inhibition came to 13.7%.

With `Cc1ccc(C)c(N2CCN(C(=O)C(C)n3nc(C)c4sc5ccccc5c4c3=O)CC2)c1` (stereo not given), the inhibition is -15.1%.

As to `COC(=O)c1ccc(NC(=O)N2CCc3c([nH]c4ccccc34)C2c2ccc(C)cc2)cc1` (stereo not given), the inhibition came to 5.88%.

For `O=C(Nn1cnc2ccccc2c1=O)c1ccccc1`, the inhibition is active: 31.2%.

Turning to `C/C(=N\NC(=O)C12CCC(C)(C(=O)O1)C2(C)C)c1ccccc1O` (stereo not given), the inhibition was active: 82.5%.

On to `O=C(NCC(c1cccnc1)N1CCOCC1)C(=O)Nc1cccc(Cl)c1` (stereo not given), for which the inhibition was found to be 20.7%.

`CSc1ccc(CCNC(=O)c2sc3ncccc3c2-n2cccc2)cc1`: the inhibition was -20.1%.

Consider `COc1cccc(C(=O)Nc2ccc3nc(SCc4ccc(C)cc4)sc3c2)c1`, for which the inhibition is -2.17%.

For the molecule `Cn1nc(-c2ccccc2)c(-c2ccccc2)c(C(=O)Nc2ccc(S(N)(=O)=O)cc2)c1=O`, the inhibition was -5.39%.

For `Cc1cccc(-n2c(SCC(=O)Nc3ccccc3Cl)nc3n[nH]c(C)c3c2=N)c1`, the inhibition came out at 18.2%.

As for `CCOc1ccc(Nc2c(S(=O)(=O)c3ccc(C)cc3)cnc3ccc(OC)cc23)cc1`, the inhibition was -5.39%.

Regarding `COC(=O)c1ccc(NC(=O)CC2C(=O)N(c3ccccc3)C(=O)N2C2CCCC2)cc1` (stereo not given), the inhibition stood at 16.6%.

Turning to `COc1cc2nc(NCc3ccccc3Cl)n3nc(-c4cccnc4)nc3c2cc1OC`, the inhibition was determined as 3.59%.

Consider `COc1ccc(CC(=O)N2CC(=O)Nc3ccc(Br)cc3C2c2ccc(F)cc2)cc1OC` (stereo not given), for which the inhibition is -26.1%.

With `O=C(Nc1cc(C(F)(F)F)ccc1N1CCOCC1)c1cncc(Br)c1`, the inhibition is active: 30.9%.

With `CC(C)(C)c1ccccc1OCCOCCN1CCCCCC1`, the inhibition is active: 31.3%.

As for `COc1ccc(Cn2c(C(=O)O)c(CNC3CCC(C)CC3)c3ccc(C)cc32)cc1` (stereo not given), the inhibition was -0.0792%.

Take `COc1cc(C(=O)N2CCC(c3ccncc3)CC2)cc(OC)c1OC`: the inhibition was -6.7%.

With `COCCCNC(=O)CSc1nc2nc(C)c(Cc3ccccc3Cl)c(C)n2n1`, the inhibition worked out at 2.2%.

As for `CC(=O)N1CCCc2cc(S(=O)(=O)NCc3ccc(N(C)C)cc3)ccc21`, the inhibition is -15.7%.

As to `Cc1ccc2c(c1)N(C(=O)N1CCC(C(=O)NC3CCCCCC3)CC1)CCO2`, the inhibition was -1.26%.

Regarding `Cc1ccc(-n2ncc3c(N4CCN(C)CC4)ncnc32)cc1`, the inhibition is -28%.

For `COc1cc(OC)cc(C(=O)NCc2ccc3c(c2)CCN3C(=O)c2ccccc2)c1`, the inhibition amounted to 3.59%.

In the case of `CCOc1ccc(NC(=O)Nc2cc(C(C)C)ccc2C)cc1`, the inhibition was active: 31.2%.

Regarding `CN(C)c1ccc(-c2nc(-c3ccncc3)no2)cc1[N+](=O)[O-]`, the inhibition turned out to be 16.2%.

`CCCOc1ccc(C(=O)Nc2ccc(NC(=O)c3cccc(Cl)c3)cc2)cc1`: the inhibition is -1.46%.

With `Cc1ccc(C)c(N2CCN(C(=O)c3cc(S(=O)(=O)N4CCCC4)c[nH]3)CC2)c1`, the inhibition came out at 20.5%.

As for `COc1cccc(Nc2cc(-c3ccccc3)nc(C)n2)c1`, the inhibition is -10.1%.

Take `CCc1ccc(S(=O)(=O)Nc2cc(-c3cn4ccccc4n3)ccc2C)cc1`: the inhibition came to 26.1%.

Regarding `S=c1nc(-c2ccccc2)n(CCCn2ccnc2)c2c1CCCC2`, the inhibition was active: 39.1%.

Turning to `COc1ccc(C)c2sc(N(Cc3cccnc3)C(=O)COc3ccccc3)nc12`, the inhibition stood at 24.8%.

Regarding `CC(C)(C)SCCNC(=O)CN(c1ccccc1)S(=O)(=O)c1ccc(F)cc1`, the inhibition was active: 32.2%.

On to `Cc1ccc(-c2cn3c(n2)sc2cc(C(=O)NCc4cccs4)ccc23)cc1`, for which the inhibition was 22.2%.

Take `CCC1CN(C(=O)N2CCC(C(=O)NCCc3ccc(C)cc3)CC2)c2ccccc2O1` (stereo not given): the inhibition was found to be 8.55%.

For `CCCCNC(=O)Cn1c(=O)cc(C)c2c(C)nn(-c3ccc(CC)cc3)c21`, the inhibition was found to be 6.65%.

Take `Cc1oc(-c2ccccc2)nc1CSc1nnc(C)n2c1cc1sccc12`: the inhibition was found to be 18.7%.

With `CCOCCCNC(=O)CCC(=O)NNc1nc2ccccc2c2nc(-c3ccccc3)nn12`, the inhibition is -9.88%.

Consider `O=C(NCc1cccc(Br)c1)C1CCN(C(=O)c2sccc2-n2cccc2)CC1`, for which the inhibition was 6.42%.

Regarding `Cc1ccc(-n2nc(CO)c(C(=O)NCC(c3ccccc3)c3ccccc3)n2)cc1`, the inhibition was 16.7%.

Consider `O=C(CCc1nnc2n(Cc3ccccc3Cl)c(=O)c3ccccc3n12)Nc1ccc(F)c(F)c1`, for which the inhibition is 0.391%.

As for `CCCCN1C(=O)C2C(C(=O)Nc3cccc(OC)c3)C3C=CC2(O3)C1C(=O)NC1CCCCC1C` (stereo not given), the inhibition was active: 35.8%.

For the molecule `CCc1sc(Nc2ccc(C)cc2Br)nc1-c1cc2cccc(OC)c2oc1=O`, the inhibition amounted to 5.54%.

For the molecule `CC(=O)NCCNc1nc2c(-c3ccc(C)cc3)nnn2c2ccccc12`, the inhibition was -9.96%.

As for `CCCN(CCC)C(=O)Cn1c(=O)n(-c2ccc(C)cc2)c(=O)c2ccc(C(=O)NCc3ccccc3Cl)cc21`, the inhibition is -2.21%.

For the molecule `CNC(=O)C1CCN(Cc2cc3ccccc3n2Cc2ccccc2C)CC1`, the inhibition turned out to be 24.1%.

Regarding `CCOc1ccc(OCC)c(NC(=O)C(NS(=O)(=O)c2ccc(Br)s2)c2ccccc2)c1` (stereo not given), the inhibition is -1.71%.

With `COc1cccc(CNC(=O)CN2C(=O)CCCc3ccccc32)c1OC`, the inhibition came to 21.2%.

For `Nc1c(-c2nc(-c3cccs3)no2)nnn1-c1cccc(F)c1`, the inhibition was -0.655%.

Consider `CCOC(=O)c1cnc2c(C)cccc2c1NCCc1ccc(OC)c(OC)c1`, for which the inhibition is -13.2%.

For `CCc1ccc(NC(=O)c2ccc3oc(=O)n(Cc4ccccc4)c3c2)cc1`, the inhibition is 18.4%.

Consider `Cc1ccc(C)c(CN2C(=O)c3ccccc3S(=O)(=O)c3ccc(C(=O)N4CCCC4)cc32)c1`, for which the inhibition is -8.71%.

As for `CCN(c1ncnc2c1cnn2-c1cc(Cl)ccc1C)C1CCCCC1`, the inhibition was -19.6%.
